Laboratory results published in the antibiotic and cytotoxicity screens of Wong et al. (2023).
Some of the results follow.

Legend:
HSkMC = human skeletal muscle cells; test: cytotoxicity call (relative viability < 0.9); settings: 10 µM
HepG2 = test: cytotoxicity call (relative viability < 0.9); settings: 10 µM
S. aureus RN4220 = test: growth inhibition call (relative growth <= 0.2); settings: 50 µM

| SMILES | cytotoxicity call (HSkMC) | cytotoxicity call (HepG2) | growth inhibition call (S. aureus RN4220) |
| --- | --- | --- | --- |
| O=C(C[C@@H]1CC[C@H](NC(=O)Nc2ccc3c(c2)OCO3)[C@@H](CO)O1)NCCCN1CCOCC1 | inactive | inactive | inactive |
| Cc1ccc(S(=O)(=O)N2C[C@H](O)COC[C@H]3O[C@@H](CC(=O)NCCCN(C)C)CC[C@@H]32)cc1 | inactive | inactive | inactive |
| CN(C)/C=N/C(=S)N1CCOCC1 | inactive | inactive | inactive |
| C[C@@H]1C[C@H](C)CN(Cc2nc3c(c(=O)n(C)c(=O)n3C)n2CC(N)=O)C1 | inactive | inactive | inactive |
| Cn1cc(CN2C[C@H]3CCCO[C@H]3[C@H](NS(C)(=O)=O)C2)cn1 | inactive | inactive | inactive |
| C[C@@H]1CN([C@H](C)CO)C(=O)Cc2cc(NC(=O)CCN3CCOCC3)ccc2O[C@@H]1CN(C)CC1CCCCC1 | inactive | inactive | inactive |
| C[C@@H]1CCCCO[C@H](CN(C)Cc2ccc(C(F)(F)F)cc2)[C@H](C)CN([C@@H](C)CO)C(=O)c2cc(NC(=O)C3CCCCC3)ccc2O1 | inactive | active | inactive |
| C[C@@H]1CN([C@@H](C)CO)C(=O)c2cc(NC(=O)C3CCCCC3)ccc2O[C@H]1CN(C)C(=O)Nc1ccc(C(F)(F)F)cc1 | inactive | inactive | inactive |
| C[C@@H]1CN([C@H](C)CO)C(=O)c2cccc(NC(=O)Nc3ccc(F)cc3)c2O[C@@H]1CN(C)Cc1ccc(Cl)c(Cl)c1 | inactive | inactive | inactive |
| CN1C(=O)c2cc(NC(=O)c3ccc(F)c(F)c3)ccc2OC[C@@H]2O[C@H](CC(=O)N3CCOCC3)CC[C@H]21 | inactive | inactive | inactive |
